# Assay results from the supplement of paper PMC5499739.
# Over roughly 16,000 sequences, “Z-score” has its median near -0.37; the highest 2% begin near 3.2. This is one part of the list.
# System: RBM10 RRM1-ZnF (GST-tagged construct)
# Experiment: RNAcompete 7-mer binding Z-score; higher = stronger binding preference
# Experimental: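 RNAcompete: 20 pmol GST-tagged RBM10 RNA-binding constructs were incubated with a designed RNA pool of about 241,000 sequences up to 41 nt (1.5 nmol) on glutathione beads for 30 min at 4 °C and washed. Bound RNAs were identified by microarray hybridisation. Each RNA 7-mer is scored by a one-sided Z-score of its enrichment, computed over probes that contain the 7-mer within longer pool sequences.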
row,Sequence,RNAcompete 7-mer binding Z-score
1,UACAUGA,-0.171
2,CGACGGU,0.267
3,AUCGCAC,-0.444
4,CCUGACC,-0.766
5,GACCCGG,-0.441
6,GUUUUCU,-0.584
7,GUAAUCG,0.0918
8,GAAGUCC,-0.529
9,GAAUCAU,-0.324
10,CUUCUGU,-0.737
11,UGAUCAA,-0.376
12,UUCCGAU,-0.805
13,CAUACAU,-0.457
14,UACACUA,-0.522
15,CGUAGCA,-0.331
16,CGAUUAU,-0.639
17,GGUCGAC,0.137
18,UCGAACA,-0.418
19,CAUGAUG,-0.136
20,UGGAUUA,1.08
21,AUCGUCU,-0.681
22,GUAGGUA,2.15
23,GCCUUCU,-0.681
24,CUCGGUA,-0.487
25,GAGCUGA,0.417

row,Sequence,RNAcompete 7-mer binding Z-score
1,GAAAUUA,-0.373
2,GCUCCAU,-0.662
3,CCCUUUU,-0.974
4,AUUCUCU,-0.792
5,GUGUAUC,-0.197
6,CUUUAUA,-0.717
7,CGGGUAU,1.59
8,GGGGUAA,4.14
9,GUAUCGA,-0.217
10,AUAUACG,-0.259
11,GACUUUC,-0.834
12,CUAGAUA,-0.412
13,ACGCGAU,-0.425
14,GUAUGUC,-0.181
15,UUUCGUU,-0.626
16,CCCCGAU,-0.301
17,GAAAGUU,0.225
18,GCCUACG,-0.321
19,CGUUCAA,-0.646
20,UACGCGG,0.374
21,CGGUUGC,0.332
22,GCGCUUA,-0.509
23,AUAAUGG,1.73
24,GGGGACA,3.08
25,CGCAUUA,-0.578

row,Sequence,RNAcompete 7-mer binding Z-score
1,UCUCCGG,-0.396
2,UAAAUCA,-0.483
3,GCUCCUU,-0.746
4,GGCCGUU,-0.597
5,UGACACC,-0.399
6,UUAGACU,-0.555
7,GGGCGCG,2.12
8,GACGGGA,2.47
9,GAUAUGU,0.082
10,CGCGGAG,1
11,GCAAUAU,-0.545
12,ACACCCG,-0.347
13,CACAUCU,-0.639
14,ACAACGC,-0.792
15,CCGAGCG,0.056
16,GGGAACA,2.67
17,CAGGUAA,1.17
18,CGGUUCG,-0.227
19,GUGGUCG,1.2
20,GGUUACG,1.39
21,UUCACCU,-0.805
22,AAUCCAU,-0.789
23,CCUGUAC,-0.707
24,ACAGCGA,-0.0674
25,UUUAAGG,0.569

row,Sequence,RNAcompete 7-mer binding Z-score
1,CGAGUAG,0.15
2,AGUUGUG,0.371
3,AUACGGU,1.07
4,GCAAAAA,-0.279
5,CGUGUCA,-0.529
6,UGCAAUC,-0.604
7,UAUCCGG,-0.513
8,UCCGAUA,-0.746
9,GUGAGCC,0.00729
10,UCAAUAU,-0.675
11,UGCGAUG,0.15
12,GUAAGGU,2.71
13,UAUUGGC,-0.201
14,AUGGAAU,1.69
15,AUCCGAG,-0.662
16,GGUAUGG,4.22
17,GCAAGAG,0.537
18,CAGACGU,-0.272
19,GCAACAA,-0.295
20,CUGUUGA,-0.422
21,CGUGAAU,-0.262
22,GGCAGGC,1.19
23,UCCAAAC,-0.675
24,CUGCCAA,-0.759
25,GAUACAA,-0.0609

row,Sequence,RNAcompete 7-mer binding Z-score
1,ACUUUCA,-0.828
2,CCUUGGU,-0.0837
3,GAGCGGU,1.72
4,AUUCAAG,-0.425
5,AAUGAGU,0.235
6,CGGCUAG,0.238
7,CGCUCGU,-0.522
8,AAACUAU,-0.694
9,CCCUGCG,-0.0155
10,GCAAGCC,-0.652
11,CUGGACG,0.267
12,GAUUGGG,3.62
13,UGGAGAA,1.88
14,UCUCUUC,-0.652
15,UGUAGAG,0.923
16,GCUACGC,-0.35
17,UAGAACA,0.274
18,UACGUAU,-0.422
19,UUUCAUA,-0.772
20,UAUGGGU,2.81
21,CCGCCCU,-0.49
22,AUCAGAU,-0.184
23,GGCCUUA,-0.474
24,AUUAAAU,-0.578
25,UGUCAAU,-0.513

row,Sequence,RNAcompete 7-mer binding Z-score
1,GAACUAG,-0.123
2,CAAAAGA,-0.243
3,UACUAAC,-0.565
4,UCAAGAC,-0.396
5,CGUACAG,-0.214
6,GCCGUCA,-0.587
7,AAUAGUA,0.0885
8,CAGGUGG,2.25
9,CUCGGUG,0.115
10,UCUAGUG,-0.34
11,UCAACGU,-0.626
12,CAGCACU,-0.412
13,GACCGGC,-0.532
14,CUCCUUA,-0.863
15,UAUCCUC,-0.675
16,ACGGAUU,0.654
17,UAGCCUC,-0.733
18,UCAAUAC,-0.639
19,CAUAUUG,-0.477
20,ACACGCG,-0.321
21,UACGUCC,-0.61
22,AAAUAGU,-0.23
23,UCACACG,-0.314
24,GUGCCCA,-0.574
25,AUAUCUA,-0.467

row,Sequence,RNAcompete 7-mer binding Z-score
1,AGGACAA,0.907
2,UCCUUUU,-0.85
3,CCUGUAA,-0.899
4,CUUUAAA,-0.782
5,GGUGUCG,1.54
6,AAUCGUC,-0.733
7,GGGUUGC,2.56
8,AUGUCCA,-0.756
9,ACGUUGU,-0.253
10,CUAUUUC,-0.977
11,GGGCUUU,0.566
12,UAUAGGC,0.196
13,CAAGAGA,0.0755
14,CCAGACU,-0.746
15,GUACGUU,-0.24
16,UGAGUUU,-0.132
17,UGCGGUG,1.58
18,ACUUCAA,-0.701
19,GACGGGU,2.36
20,UAAGUAA,-0.165
21,UUACGAG,-0.171
22,ACACGAU,-0.503
23,UGAAAUU,-0.617
24,AUGACCC,-0.513
25,UUCCCAA,-0.789

row,Sequence,RNAcompete 7-mer binding Z-score
1,UGGAGUC,0.972
2,GCGGUUA,1.32
3,GCUACCC,-0.633
4,GGAAUGG,4.85
5,CAGGCCG,-0.149
6,UGGUGAA,1.71
7,AUCCGCC,-0.763
8,UGUACGU,-0.175
9,GAAGCGC,0.0885
10,GAAGGUA,3.84
11,GUAAGUU,0.0918
12,UAAGAAC,-0.305
13,ACGAAAA,-0.233
14,GGAAAUC,0.745
15,GUUUAUG,0.28
16,UUUGUUA,-0.753
17,AGGGGUC,1.98
18,GUCAUAU,-0.402
19,UGGACCC,0.105
20,CUCCUAA,-0.74
21,ACUCUAG,-0.555
22,AAUUGAA,-0.178
23,GCACUUA,-0.555
24,UGUCCUA,-0.574
25,UGCCUUU,-0.886

row,Sequence,RNAcompete 7-mer binding Z-score
1,UGGGAAC,2.22
2,UCUGUUA,-0.763
3,CGCGACU,-0.662
4,UAAUUUU,-0.798
5,GAAUGUG,1.27
6,GUUCGUG,0.0755
7,CGGUGCG,0.8
8,GGAUUAG,2.37
9,GCUGCCA,-0.578
10,CAAUCGU,-0.714
11,GUAAAGU,0.54
12,ACAGAAA,-0.256
13,UGCUGCG,-0.11
14,UUGCCCG,-0.659
15,CCACCGU,-0.392
16,AAGGUCA,0.904
17,CCAGACG,-0.402
18,CGUUAAC,-0.649
19,GGGGCAG,3.4
20,CCGGUCU,-0.649
21,AGCGGAG,2.14
22,GCGUGUA,0.212
23,CAGACCU,-0.678
24,GCCGGCU,-0.649
25,UGAUUUU,-0.818

row,Sequence,RNAcompete 7-mer binding Z-score
1,CUUAUUC,-0.863
2,GUCCUCA,-0.792
3,AGGACCC,-0.516
4,CGAUGAA,0.0853
5,CAAAUCG,-0.513
6,UACACGU,-0.526
7,UUCUAAG,-0.636
8,AUGAUCC,-0.675
9,AGUCACC,-0.636
10,UUCUCAG,-0.6
11,UAACAUA,-0.363
12,UGCGCUG,-0.155
13,UGUCAGG,0.371
14,CCAGGGA,1.51
15,UGCUCGU,-0.633
16,AAGGAUC,1.32
17,UCCGGCA,-0.785
18,AAAUUUA,-0.425
19,GCGGUCU,-0.136
20,UAAUGCU,-0.74
21,GCCACAU,-0.591
22,UGAACUC,-0.672
23,CGCAGGU,0.355
24,UCCGACG,-0.548
25,UGCAAGU,0.0495

row,Sequence,RNAcompete 7-mer binding Z-score
1,AAUAAUG,-0.0837
2,GCUUGUU,-0.626
3,UACUUGA,-0.555
4,AUAAGUU,-0.0577
5,UAUUUCA,-0.623
6,GAUUGGU,1.91
7,CGUGGGC,1.85
8,UGAACGU,-0.181
9,AAACAUG,-0.149
10,UUUGGGG,2.72
11,CAUGUUU,-0.707
12,AGCCAUU,-0.941
13,GAGCUCA,-0.613
14,AUAUUCA,-0.509
15,AUCUUCC,-0.691
16,AGAUAUC,-0.688
17,AUCAGAG,0.095
18,GCGACUU,-0.519
19,GGACCAG,0.79
20,CGUCUCA,-0.737
21,GUAUAUC,-0.214
22,UCUUUCA,-0.841
23,UUUUGCG,-0.785
24,AUUAUAU,-0.243
25,UCGUUGC,-0.522

row,Sequence,RNAcompete 7-mer binding Z-score
1,UUUCGAG,-0.379
2,UAAGACU,-0.558
3,GUGAACA,0.573
4,GAGCUAG,0.566
5,ACGGUAA,0.872
6,CAACCCG,-0.597
7,AGAACUU,-0.688
8,ACCUUGA,-0.834
9,ACGUGGU,1.23
10,GGGAGAA,2.46
11,AAACGCA,-0.347
12,CCAUCGC,-0.772
13,GGCAACC,-0.0772
14,GUAUCUU,-0.639
15,GCUAUGU,-0.272
16,AACCAAG,-0.217
17,AUAAAGA,0.056
18,UGUCCAA,-0.681
19,UGCCGGU,0.0463
20,AUUUCCU,-0.909
21,ACGCGUG,0.00404
22,CCUAACA,-0.815
23,GUGUCUC,-0.422
24,AAUGGCC,0.287
25,UUCCGCG,-0.704

row,Sequence,RNAcompete 7-mer binding Z-score
1,AUAACUC,-0.678
2,GGGACGU,1.76
3,AUCCACG,-0.578
4,AGAUAUU,-0.399
5,CUUUGAA,-0.733
6,GACUACG,-0.0804
7,CCACGUU,-0.529
8,UCAGUCU,-0.681
9,AACGCCC,-0.659
10,CCUUAGC,-0.73
11,GCGGUUG,1.42
12,CAUUCAC,-0.688
13,GUCGGUU,0.244
14,CUUGAUG,-0.324
15,GUAAGAG,1.23
16,UGAGGUA,1.97
17,UUGAGUC,-0.48
18,CACCCUC,-0.578
19,UUUGUCU,-0.678
20,UGCGGCU,0.0593
21,UGUAGUA,0.108
22,AUUACUC,-0.672
23,ACAUAUA,-0.714
24,CGCUGUG,-0.272
25,UCGACGA,-0.327

row,Sequence,RNAcompete 7-mer binding Z-score
1,CAGUGGA,1.38
2,ACUUGAC,-0.763
3,GAUACGG,1.82
4,CUCCCAG,-0.587
5,GGGCCGA,0.738
6,CGUUUAU,-0.62
7,GUAAGUC,-0.139
8,AACUUAA,-0.5
9,UACCCGA,-0.717
10,GUCUGAC,-0.529
11,UCUCGAC,-0.873
12,CGGAAAC,0.043
13,GAGUGCU,0.056
14,AAGGGAU,3.65
15,GAAACCU,-0.802
16,GCAGAAU,0.413
17,CAACUUC,-0.883
18,AAAUCCA,-0.733
19,CCUUAUU,-0.922
20,UGCCGUG,-0.129
21,UUCCCCC,-0.373
22,CUGAUCG,-0.535
23,ACGCCGG,-0.399
24,AGACAGG,1.59
25,UAGUGAC,0.0398

row,Sequence,RNAcompete 7-mer binding Z-score
1,UGCUGCU,-0.396
2,GAUAUGC,-0.0577
3,UUAAUUA,-0.36
4,AAUUCCC,-0.873
5,UAUCACA,-0.24
6,UCGUUGA,-0.483
7,CGCGCGC,-0.295
8,CGAACGA,-0.123
9,CUCGGGA,0.426
10,GUGACGA,0.521
11,GUAAAGA,0.547
12,UAGUGGU,1.33
13,UACGCCA,-0.487
14,GCGACCA,-0.175
15,CACUACA,-0.685
16,GUUCCAU,-0.711
17,AUGGAGA,2.62
